Source: the supplement of paper PMC8728848
The list shows a part of the results.

Legend:
Experiment in all cases: glycan array binding signal (z-score within array); higher = stronger binding
Settings in all cases: glycan notation: IUPAC condensed, linker removed
[1] = molecular target: Fuc(a1-3)[GalNAc(b1-4)]GlcNAc
Summary of the method: (§1)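 Glycan array data were curated from 3228 arrays in the Consortium for Functional Glycomics database and kept only where the protein sequence was available. Glycan names were converted to IUPAC-condensed notation, and columns mapping to the same glycan were averaged. The binding signal is a within-array Z-score, averaged across arrays of the same protein sequence at different concentrations or buffers and across linkers. Negative Z-scores can be read as non-binding.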

Fuc(a1-4)GlcNAc = molecular target: Fuc(a1-4)GlcNAc
Summary of the method: as §1

Fuc(b1-3)GlcNAc = molecular target: Fuc(b1-3)GlcNAc
Summary of the method: as §1

Gal(a1-2)Gal = molecular target: Gal(a1-2)Gal
Summary of the method: as §1

Gal(a1-3)Gal = molecular target: Gal(a1-3)Gal
Summary of the method: as §1

Gal(a1-3)Gal(b1-3)GlcNAc = molecular target: Gal(a1-3)Gal(b1-3)GlcNAc
Summary of the method: as §1

Gal(a1-3)Gal(b1-4)Glc = molecular target: Gal(a1-3)Gal(b1-4)Glc
Summary of the method: as §1

Gal(a1-3)Gal(b1-4)GlcNAc = molecular target: Gal(a1-3)Gal(b1-4)GlcNAc
Summary of the method: as §1

[2] = molecular target: Gal(a1-3)Gal(b1-4)[Fuc(a1-3)]GlcNAc
Summary of the method: as §1

Gal(a1-3)GalNAc = molecular target: Gal(a1-3)GalNAc
Summary of the method: as §1

[3] = molecular target: Gal(a1-3)[Gal(a1-4)]Gal(b1-4)GlcNAc
Summary of the method: as §1

Gal(a1-4)Gal(b1-4)Glc = molecular target: Gal(a1-4)Gal(b1-4)Glc
Summary of the method: as §1

Gal(a1-4)Gal(b1-4)GlcNAc = molecular target: Gal(a1-4)Gal(b1-4)GlcNAc
Summary of the method: as §1

Gal(a1-4)GlcNAc = molecular target: Gal(a1-4)GlcNAc
Summary of the method: as §1

Gal(a1-6)Glc = molecular target: Gal(a1-6)Glc
Summary of the method: as §1

Gal(b1-2)Gal = molecular target: Gal(b1-2)Gal
Summary of the method: as §1

Gal(b1-3)Gal = molecular target: Gal(b1-3)Gal
Summary of the method: as §1

Gal(b1-3)Gal(b1-4)GlcNAc = molecular target: Gal(b1-3)Gal(b1-4)GlcNAc
Summary of the method: as §1

Gal(b1-3)GalNAc = molecular target: Gal(b1-3)GalNAc
Summary of the method: as §1

[4] = molecular target: Gal(b1-3)GalNAc(b1-3)Gal(a1-4)Gal(b1-4)Glc
Summary of the method: as §1

[5] = molecular target: Gal(b1-3)GalNAc(b1-4)Gal(b1-4)Glc
Summary of the method: as §1

[6] = molecular target: Gal(b1-3)GalNAc(b1-4)[Neu5Ac(a2-3)]Gal(b1-4)Glc
Summary of the method: as §1

Gal(b1-3)GlcNAc = molecular target: Gal(b1-3)GlcNAc
Summary of the method: as §1

[7] = molecular target: Gal(b1-3)GlcNAc(b1-2)Man(a1-3)[Gal(b1-3)GlcNAc(b1-2)Man(a1-6)]Man(b1-4)GlcNAc(b1-4)GlcNAc
Summary of the method: as §1

[8] = molecular target: Gal(b1-3)GlcNAc(b1-3)Gal(b1-3)GlcNAc
Summary of the method: as §1

[9] = molecular target: Gal(b1-3)GlcNAc(b1-3)Gal(b1-4)Glc
Summary of the method: as §1

[10] = molecular target: Gal(b1-3)GlcNAc(b1-3)Gal(b1-4)GlcNAc
Summary of the method: as §1

[11] = molecular target: Gal(b1-3)[Fuc(a1-4)]GlcNAc
Summary of the method: as §1

[12] = molecular target: Gal(b1-3)[Fuc(a1-4)]GlcNAc(b1-3)Gal(b1-3)[Fuc(a1-4)]GlcNAc
Summary of the method: as §1

[13] = molecular target: Gal(b1-3)[Fuc(a1-4)]GlcNAc(b1-3)Gal(b1-4)GlcNAc
Summary of the method: as §1

[14] = molecular target: Gal(b1-3)[Fuc(a1-4)]GlcNAc(b1-3)Gal(b1-4)[Fuc(a1-3)]GlcNAc
Summary of the method: as §1

[15] = molecular target: Gal(b1-3)[GlcNAc(b1-6)]GalNAc
Summary of the method: as §1

[16] = molecular target: Gal(b1-3)[Neu5Ac(a2-6)]GalNAc
Summary of the method: as §1

[17] = molecular target: Gal(b1-3)[Neu5Ac(a2-6)]GlcNAc(b1-6)Gal(b1-4)Glc
Summary of the method: as §1

[18] = molecular target: Gal(b1-3)[Neu5Ac(b2-6)]GalNAc
Summary of the method: as §1

[19] = molecular target: Gal(b1-4)GalNAc(a1-3)[Fuc(a1-2)]Gal(b1-4)GlcNAc
Summary of the method: as §1

[20] = molecular target: Gal(b1-4)GalNAc(b1-3)[Fuc(a1-2)]Gal(b1-4)GlcNAc
Summary of the method: as §1

Gal(b1-4)Glc = molecular target: Gal(b1-4)Glc
Summary of the method: as §1

Gal(b1-4)Glc6S = molecular target: Gal(b1-4)Glc6S
Summary of the method: as §1

Gal(b1-4)GlcNAc = molecular target: Gal(b1-4)GlcNAc
Summary of the method: as §1

[21] = molecular target: Gal(b1-4)GlcNAc(a1-6)Gal(b1-4)GlcNAc
Summary of the method: as §1

[22] = molecular target: Gal(b1-4)GlcNAc(b1-2)Man(a1-3)[Gal(b1-4)GlcNAc(b1-2)Man(a1-6)]Man(b1-4)GlcNAc(b1-4)GlcNAc
Summary of the method: as §1

[23] = molecular target: Gal(b1-4)GlcNAc(b1-3)Gal(b1-3)GlcNAc
Summary of the method: as §1

[24] = molecular target: Gal(b1-4)GlcNAc(b1-3)Gal(b1-4)Glc
Summary of the method: as §1

[25] = molecular target: Gal(b1-4)GlcNAc(b1-3)Gal(b1-4)GlcNAc
Summary of the method: as §1

B1: NESD (Drosophila melanogaster), NP_610025.1 (protein)
chain: MGHHHHHHSSGVDLGTENLYFQSMMEVFTFEKSYLERLKEAEAVLSWEGAVMPASQVRSEWKSYVELKIEPAGWQAIWKIPRVICEDLKLRYPTIVYGYVEQVIFDELKAVFVVTAVQDSDVHLPESNEVSLVELWPTVQQENAALNVDTTAECIDRLRFFYTHVWMPWDKDYDDDRDWVQQHLQARIQLVCDLSKNRLPRPLALHMRTLLAEAKYIQQRLDYLELDLSDAESDDEAVELNDSVAEPARKQSKAGSANGCLNVSSLPVTDLMCLHLRMAIIRSEFEILENPEMRRAYSELQSNSLKRLRCSSGRTRQSEDLLVERNSISHVVTLPGKLQQQLELLKLAQTLVKPESKVQLSNTLQDVLSICQSNDDILLSPGEHTIKFLEHLNDNGSLRGLTQPEAILSPAADLSLLPVVCSSDEDSTLLVIDGDYTLSELVLDCRHVRRGILLRNGTLTMRGCRLLGDGSSSTQEGIVCMPGASVELKSCLIENFAVGVSMRPKSSAELGSVQFKTCKTGLELLEKSASVNLQGSKCSFENCALGILADGFVLGEQRTEKVLVLNKFSELQRYNEDNLLGNCSFYNCKKNVRVFNESGQLLAQRSHQQLLEDELGGENKENIQLV
glycan array binding signal (z-score) [1]: -0.514
glycan array binding signal (z-score) (Fuc(a1-4)GlcNAc): -0.117
glycan array binding signal (z-score) (Fuc(b1-3)GlcNAc): 0.021
glycan array binding signal (z-score) (Gal(a1-2)Gal): -0.013
glycan array binding signal (z-score) (Gal(a1-3)Gal): -0.269
glycan array binding signal (z-score) (Gal(a1-3)Gal(b1-3)GlcNAc): -0.304
glycan array binding signal (z-score) (Gal(a1-3)Gal(b1-4)Glc): -0.126
glycan array binding signal (z-score) (Gal(a1-3)Gal(b1-4)GlcNAc): -0.108
glycan array binding signal (z-score) [2]: -0.573
glycan array binding signal (z-score) (Gal(a1-3)GalNAc): -0.191
glycan array binding signal (z-score) [3]: -0.494
glycan array binding signal (z-score) (Gal(a1-4)Gal(b1-4)Glc): -0.242
glycan array binding signal (z-score) (Gal(a1-4)Gal(b1-4)GlcNAc): -0.141
glycan array binding signal (z-score) (Gal(a1-4)GlcNAc): 0.161
glycan array binding signal (z-score) (Gal(a1-6)Glc): -0.36
glycan array binding signal (z-score) (Gal(b1-2)Gal): 0.961
glycan array binding signal (z-score) (Gal(b1-3)Gal): 0.646
glycan array binding signal (z-score) (Gal(b1-3)Gal(b1-4)GlcNAc): 0.487
glycan array binding signal (z-score) (Gal(b1-3)GalNAc): 0.704
glycan array binding signal (z-score) [4]: -0.112
glycan array binding signal (z-score) [5]: 0.482
glycan array binding signal (z-score) [6]: -0.161
glycan array binding signal (z-score) (Gal(b1-3)GlcNAc): -0.219
glycan array binding signal (z-score) [7]: -0.613
glycan array binding signal (z-score) [8]: -0.584
glycan array binding signal (z-score) [9]: 0.27
glycan array binding signal (z-score) [10]: -0.14
glycan array binding signal (z-score) [11]: -0.017
glycan array binding signal (z-score) [12]: -0.192
glycan array binding signal (z-score) [13]: -0.241
glycan array binding signal (z-score) [14]: -0.47
glycan array binding signal (z-score) [15]: -0.273
glycan array binding signal (z-score) [16]: -0.31
glycan array binding signal (z-score) [17]: -0.315
glycan array binding signal (z-score) [18]: -0.382
glycan array binding signal (z-score) [19]: -0.37
glycan array binding signal (z-score) [20]: -0.195
glycan array binding signal (z-score) (Gal(b1-4)Glc): 3.98
glycan array binding signal (z-score) (Gal(b1-4)Glc6S): 2.75
glycan array binding signal (z-score) (Gal(b1-4)GlcNAc): -0.379
glycan array binding signal (z-score) [21]: -0.476
glycan array binding signal (z-score) [22]: -0.591
glycan array binding signal (z-score) [23]: 0.385
glycan array binding signal (z-score) [24]: 0.671
glycan array binding signal (z-score) [25]: 0.201
